# Out of some 340,000 compounds screened, about 12,000 (3.5%) were called active. The shares of active, inactive and inconclusive entries below differ from those in the screen. Calls follow the shape of the dose curve; as a rule, active = well fitted inhibition curve with a large enough effect; inconclusive = small, poorly fitted or top-dose-only effect, or another doubt; inactive = no such curve, though single readings can be large or run the other way. No potency is given beside an inconclusive call; the fits are too rough.
# Test: qHTS Assay for Inhibitors of Hepatitis C Virus (HCV)
# Settings: Huh7.5.1 HCVcc-Cre (HCVcc is cell-culture hepatitis C virus) infection, luciferase reporter, 44 h; activity change, negative = inhibition: at 41.8 µM (top of the series) unless noted
# Outline: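 Seed cells (1,000/well) for 4 h; treat with compound and infect with HCVcc-Cre, moi about 0.5. Incubate 44 h, then detect luciferase activity.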
# % is scaled to controls: 0 for no effect and ±100 for the full control effect; potency is read from the fitted curve at half-maximal effect; tags tell the direction and shape of the fitted curve.
Compound,Potency,"activity change, negative = inhibition"
Cc1ccc(C(C)NC(=S)NCc2ccc(F)cc2)cc1C (stereo unspecified),"inconclusive [inhibitor, single point]",–
CCCCCn1nc(C(=O)OCc2nc(N)nc(Nc3ccccc3)n2)c2ccccc2c1=O,"inconclusive [inhibitor, partial curve, poor fit]",–
N#Cc1nc(-c2ccc(OCc3ccccc3)cc2)oc1NCCCn1ccnc1,"inconclusive [inhibitor, single point]",–
COc1cc(C)ccc1OCCOCCOc1ccccc1[N+](=O)[O-],"inconclusive [inhibitor, single point]",–
CC(/C=N/NC(=O)c1cccc(F)c1)=C\c1ccccc1,"inconclusive [inhibitor, partial curve]",–
NS(=O)(=O)c1ccc(CCNC(=S)Nc2ccccc2)cc1,"inconclusive [inhibitor, single point]",–
COc1cc(/C=N/NC(=O)c2ccccc2)ccc1OS(=O)(=O)c1ccccc1,"inconclusive [inhibitor, partial curve]",–
O=C(Cc1ccc(F)cc1)NC1CCSC1=O (stereo unspecified),"inconclusive [inhibitor, single point]",–
c1ccc2c(Nc3nnc(-c4ccncc4)s3)cccc2c1,"inconclusive [inhibitor, partial curve, poor fit]",–
CCN(CC)CCNc1ccc(CO)c2sc3ccccc3c(=O)c12,"inconclusive [inhibitor, full curve]",–
CCc1cc2c(C)ccc(C)c2nc1SCC(=O)Nc1c[nH]c(=O)[nH]c1=O,"inconclusive [inhibitor, single point]",–
Cc1c(C(=O)N2CCN(Cc3ccc4c(c3)OCO4)CC2)sc2ncnc(N3CCN(c4ccccc4)CC3)c12,"inconclusive [inhibitor, full curve]",–
CC(=O)c1c(C)[nH]c(C(=O)COc2ccc(C#N)cc2)c1C,"inconclusive [inhibitor, partial curve]",–
Cn1c(-c2ccccc2)c(/C=N/NC(=O)c2cccnc2)c2ccccc21,"inconclusive [inhibitor, single point]",–
O=C(CSc1ncnc2sccc12)NCc1ccc2c(c1)OCO2,"inconclusive [inhibitor, partial curve]",–
COC(=O)c1ccc(Oc2nc(NC(C)C)nc(SC)n2)cc1,"inconclusive [inhibitor, full curve]",–
Cc1cccc(OCC(=O)NCc2n[nH]c(=O)c3ccccc23)c1,"inconclusive [inhibitor, single point]",–
CCC(C)Sc1cc(-c2nc3ccccn3c2NC2CCCCC2)ccc1OC (stereo unspecified),"inconclusive [inhibitor, single point]",–
CC(C)c1ccc(NC(=O)NC(C)c2ccc3c(c2)OCO3)cc1 (stereo unspecified),"inconclusive [inhibitor, single point]",–
COc1ccc(NC(=O)CN(c2cc(C)cc(C)c2)S(=O)(=O)c2c(C)n[nH]c2C)cc1,"inconclusive [inhibitor, full curve, poor fit]",–
O=C(NCCC1CCCCN1S(=O)(=O)c1ccccc1)C(=O)Nc1ccc(F)cc1F (stereo unspecified),"inconclusive [inhibitor, partial curve, poor fit]",–
COc1ccc(C)cc1NC(=O)CCc1c(C)nn(-c2ccc(N3CCCCC3)nn2)c1C,"inconclusive [inhibitor, partial curve]",–

Compound,Potency,"activity change, negative = inhibition"
Cc1nc(N2CCCCCC2)c2ccccc2n1,active: 10 µM,–
Cc1nnc(N(C)C(=O)Cc2ccc3c(c2)OCO3)s1,"inconclusive [inhibitor, partial curve]",–
O=C(COc1ccc(Cl)cc1)N1CCN(Cc2ccc3c(c2)OCO3)CC1,"inconclusive [inhibitor, partial curve]",–
CC(=O)N1CCc2cc(S(=O)(=O)NCCC(=O)N3CCN(Cc4ccccc4)CC3)ccc21,"inconclusive [inhibitor, partial curve]",–
CC(=O)CC[N+](C)(C)C,"inconclusive [inhibitor, single point]",–
COc1ccc(NS(=O)(=O)c2cccc(C(=O)N3CCC3)c2)cc1,"inconclusive [inhibitor, partial curve]",–
Cc1cc(=O)oc2c(CN3CCCCC3)c(O)c(Cl)cc12,"inconclusive [inhibitor, single point]",–
Cn1c(=O)c2c(c3ccccc31)OC(=O)CC2c1cccnc1 (stereo unspecified),–,inactive: 17.1%
Cc1nn2c(NCC(C)C)c3c(nc2c1-c1ccccc1)CCC3,active: 6.31 µM,–
COC(=O)c1c(NC(=O)c2ccco2)sc2c1CCC2,"inconclusive [inhibitor, partial curve]",–
Cc1cccc(NC(=O)CN2CCN(CC(=O)Nc3cccc(C)c3)CC2)c1,"inconclusive [inhibitor, single point]",–
COc1ccc(S(=O)(=O)N2CCC(C(=O)NCCCc3ccccc3)CC2)cc1,"inconclusive [inhibitor, partial curve]",–
CCOC(=O)N1CCN(S(=O)(=O)c2ccc(C(=O)NNc3nc4cc(C)cc(C)c4s3)cc2)CC1,active: 3.55 µM,–
CCN(C[C@H]1N[C@@](CC)(C(=O)OC)[C@H]2C(=O)N(C)C(=O)[C@@H]12)C(=O)Nc1ccc(F)cc1,"inconclusive [inhibitor, single point]",–
CC(C)(C)c1ccc(/C=N/NC(=O)Cc2c[nH]c3ccccc23)cc1,"inconclusive [inhibitor, single point]",–
CCOC(=O)c1oc2nc3c(cc2c1N)COC(C)(C)C3,–,inactive: -29.2%
COc1ccc(NC(=S)Nc2cc(-c3ccccc3)[nH]n2)cc1Cl,"inconclusive [inhibitor, partial curve]",–
Cc1nc2scc(C)n2c(=O)c1S(=O)(=O)Nc1ccc(N2CCN(S(C)(=O)=O)CC2)cc1,"inconclusive [inhibitor, single point]",–
COC(=O)c1ccc(C2c3[nH]c4ccccc4c3C[C@H]3C(=O)N(C4CCN(Cc5ccccc5)CC4)CC(=O)N23)cc1 (stereo partly specified),active: 10 µM,–
CCOc1ccc(CCNC(=O)CS(=O)Cc2nc(-c3ccc(OC)c(OC)c3)oc2C)cc1OCC (stereo unspecified),"inconclusive [inhibitor, partial curve]",–
Cc1cccc(C)c1OCc1cc(C(=O)NCc2ccc(Cl)s2)no1,–,inactive: -11.8%
Cc1ccc(NC(=O)CSc2nc3ccccc3nc2N2CCOCC2)c(C)c1,"inconclusive [inhibitor, partial curve]",–

Compound,Potency,"activity change, negative = inhibition"
O=C(Nc1ccncc1)C1CCN(S(=O)(=O)c2ccc(Cl)cc2)CC1,"inconclusive [inhibitor, single point]",–
CN(Cc1cnc2nc(N)nc(N)c2n1)c1ccc(C(=O)N[C@@H](CCC(=O)O)C(=O)O)cc1,"inconclusive [inhibitor, partial curve, poor fit]",–
COc1cc(CCC(=O)NNC(=O)c2ccc(C)cc2)cc(OC)c1OC,–,inactive: 6.21%
CC(=O)OCCN(CCOC(C)=O)c1c(C)[nH]c(=O)[nH]c1=O,"inconclusive [inhibitor, partial curve]",–
COc1ccc(C(=O)NCCS(=O)(=O)N2CCCCCC2)cc1,–,inactive: -0.487% [at 8.37 µM]
O=C(Nc1cccc(C(F)(F)F)c1)C1CC(=O)N(CCc2ccccc2)C1 (stereo unspecified),–,inactive: 0.538%
O=C(N/N=C/c1ccc(O)c(O)c1O)/C(=C/c1ccc([N+](=O)[O-])cc1)NC(=O)c1ccccc1,active: 6.31 µM,–
O=C(c1cc(Br)ccc1O)N1CCN(S(=O)(=O)Cc2ccccc2)CC1,"inconclusive [inhibitor, single point]",–
OC(COc1cccc2ccccc12)CN1CCCC1 (stereo unspecified),"inconclusive [inhibitor, single point]",–
CCOC(=O)/C=C/C(=O)Nc1cccc([N+](=O)[O-])c1,"inconclusive [inhibitor, single point]",–
Cc1ccc(NC(=O)C2(NC(=O)c3cccc(N4C(=O)CSC4c4ccccc4)c3)CCCCC2)cc1 (stereo unspecified),"inconclusive [inhibitor, partial curve]",–
CCC1Oc2ccccc2N(CC(=O)Nc2ccc(OC)cc2OC)C1=O (stereo unspecified),"inconclusive [inhibitor, partial curve, poor fit]",–
CCOC(=O)c1sc(NC(=O)Cc2ccccc2OC)nc1C,"inconclusive [inhibitor, full curve]",–
Cc1ccccc1NC(=O)CCCC(=O)c1ccccc1,–,inactive: 24.4%
Cn1nc(-c2ccccn2)nc2c(=O)n(C)c(=O)nc1-2,active: 2 µM,–
O=C(Cc1cccc2ccccc12)N1CCN(c2ncccn2)CC1,–,inactive: 5.51%
O=C(OCn1nnc2ccccc2c1=O)c1ccc2ccccc2n1,"inconclusive [inhibitor, single point]",–
COc1ccc(CNC(=O)COC(=O)CN2C(=O)NC3(CCCC3)C2=O)cc1,–,inactive: -0.177%
CCC(=O)c1ccc(OCC(O)CNCCc2ccc(Cl)cc2)cc1 (stereo unspecified),–,inactive: -11.4%
CC(=O)N1c2ccc(S(=O)(=O)N3CCCC(C(=O)NC4CCCC(C)C4C)C3)cc2CC1C (stereo unspecified),"inconclusive [inhibitor, single point]",–
CNc1ccc(Br)cc(C(=O)/C=C/c2ccc(OC)cc2OC)c1=O,–,inactive: -27.8%
CC(=O)Oc1ccc(C(=O)Nc2cc(C)ccc2NC(=O)COc2ccccc2)cc1,"inconclusive [inhibitor, single point]",–

# From PubChem BioAssay AID651820 (National Center for Advancing Translational Sciences (NCATS), 2012)
